“And” between values parts separate entries of the source, which are not always exact repeats. Identical values can stand only once. Hit rate of the full screen: of about 420,000 compounds, about 50,000 (12%) were called active. The shares of active, inactive and inconclusive entries below differ from those in the screen. Calls come from the whole dose curve; as a rule, active = well fitted inhibition curve with a large enough effect; inconclusive = small, poorly fitted or top-dose-only effect; inactive = flat fitted curve, though single readings scatter. Where the call is inconclusive, the potency comes from a doubtful curve fit.
Assay: qHTS for Inhibitors of human tyrosyl-DNA phosphodiesterase 1 (TDP1): qHTS in cells in presence of CPT; note: nearly all actives have a fitted effect of over 55% in size
Conditions: chicken DT40 Tdp1-/-;hTDP1 cells + 20 nM CPT, ATP luminescence, 48 h; activity change, negative = growth inhibition: at 46.2 µM (top of the series) unless noted
Method in brief: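 Chicken DT40 Tdp1-/- cells complemented with human TDP1, 400 cells/well, exposed to compounds plus 20 nM camptothecin for at least 48 h at 37 C; viability read as ATP content by CellTiter-Glo luminescence.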
In the case of O=P1(Oc2ccccc2)C[C@@H](O)[C@@H](O)[C@H](COCc2ccccc2)O1 (some centres undefined), the Potency is reported as “inactive”. For CCCCOP(=O)(c1ccc(N(C)C)cc1)C(O)c1c(Cl)cccc1Cl (centres undefined), the Potency was inconclusive: 29.1 µM [inhibitor, single point]. In the case of C[C@H](N)Cc1cnc[nH]1, the Potency is reported as “inactive”. For Nc1c(C(=O)OC2CCCCC2)c2nc3ccccc3nc2n1CC1CCCO1 (centres undefined), the Potency was inconclusive: 29.1 µM [inhibitor, single point]. With O=[N+]([O-])c1ccccc1-c1cc(-c2ccccc2)cc(-c2ccccc2)[n+]1Cc1ccccc1Cl the Potency was active: 0.651 µM. With Cc1ccc(-n2c(C)nc3ccccc3c2=O)c(C)c1 the Potency was inconclusive: 29.1 µM [inhibitor, single point]. In the case of CCC(=NC1CC1)c1c(O)n(C2CCCCC2)c(=O)[nH]c1=O, the Potency is reported as “inactive”. For Cc1nc(-c2cccc(NC(=O)c3ccc(Cl)c(S(=O)(=O)N4CCCC4)c3)c2)cs1, the Potency was inconclusive: 29.1 µM [inhibitor, single point]. With CCOP(=O)(C#Cc1ccccc1)C(O)c1ccc(Br)cc1 (centres undefined) the Potency was inconclusive: 29.1 µM [inhibitor, single point]. With CCNC(=O)C1CCCN(Cc2ccc3ccccc3c2Br)CC1 (centres undefined) the Potency was inconclusive: 29.1 µM [inhibitor, single point]. In the case of CCOc1ccc2nc(NC(=O)c3cccn(Cc4ccc(Cl)cc4)c3=O)sc2c1, the Potency is reported as “inactive”. With CC(Cc1ccccc1)NCC(=O)Nc1cc(N(C)C)nc2ccccc12 (centres undefined) the Potency was inconclusive: 25.9 µM [inhibitor, single point]. For CCCCn1c(O)c(/C(CC)=N/N2CCCCC2c2cccnc2)c(=O)[nH]c1=S (centres undefined), the Potency was inconclusive: 23.1 µM [inhibitor, single point]. In the case of O=S(=O)(c1ccccc1)C1CN1c1c(F)c(F)c(F)c(F)c1F (centres undefined), the Potency is reported as “inactive”. For CCOc1ccccc1N1C(=O)NC(=O)/C(=C/c2ccc3c4c(cccc24)CC3)C1=O, the Potency was inconclusive: 29.1 µM [inhibitor, single point]. In the case of Cc1cccn2c(=O)c(/C=C(\C#N)c3nc4ccccc4s3)c(Oc3ccc(F)cc3)nc12, the Potency is reported as inconclusive: 29.1 µM [inhibitor, single point]. For Cn1c(O)c(C(=Nc2ccc(F)cc2)c2ccccc2)c(=O)n(C)c1=O, the Potency was inconclusive: 16.4 µM [inhibitor, partial curve]. For COC(=O)C1=C(c2cc3ccccc3o2)C[C@@H]2CC[C@H]1N2C(=O)NCCNC(C)=O, the Potency was “inactive”. In the case of CC(=O)O[C@H]1CC[C@@]2(C)[C@H](C1)C(=O)C[C@H]1[C@@H]3CC[C@@H]4[C@@H](CN5C[C@@H](C)CC[C@H]5[C@@]4(C)O)[C@@H]3C[C@@H]12, the Potency is reported as “inactive”. With COc1ccc(-c2cc3nc(NCc4ccc(N(C)C)cc4)n(C)c(=O)c3s2)cc1OC the Potency was inconclusive: 29.1 µM [inhibitor, single point]. For CCCCC[C@@H](/C=C/C=C\CCCCCCCC(=O)O)OO, the activity change, negative = growth inhibition was inactive: 6.78% [at 0.628 µM]. With CN1Cc2ccccc2[C@@H]2c3cccc4[nH]cc(c34)C[C@H]21 the Potency was active: 3.76 µM and active: 5.17 µM. With CCC(c1nnnn1-c1ccc(OC)cc1)N1CCC2(CC1)C(=O)NCN2c1ccccc1 (centres undefined) the Potency was inconclusive: 16.4 µM [inhibitor, single point]. In the case of CC1CCC(NC(=O)c2cc3c(=O)n(C)c4ccccc4c3n2C)CC1 (centres undefined), the Potency is reported as active: 9.2 µM. In the case of CCCC12CN3CC(CCC)(CN(C1)C3c1ccccn1)C2=O (centres undefined), the Potency is reported as inconclusive: 29.1 µM [inhibitor, single point]. In the case of Cn1c(O)c(C=NC2CCN(Cc3ccccc3)CC2)c(=O)[nH]c1=O, the Potency is reported as “inactive”. With CC(C)n1c(O)c(C2c3cc(Cl)ccc3Oc3[nH]c(=O)n(C(C)C)c(=O)c32)c(=O)[nH]c1=O (centres undefined) the Potency was active: 2.91 µM. With Cc1ccccc1OCCCn1cc(C(=O)C(=O)N2CCOCC2)c2ccccc21 the Potency was inconclusive: 29.1 µM [inhibitor, single point]. For COC(=O)[C@@]1(Sc2ccc(C)cc2)CC(=O)N(P(=O)(OC)OC)[C@@H]1c1ccccc1, the Potency was inconclusive: 25.9 µM [inhibitor, single point]. For O=c1[nH]c(CN2CCNCC2)nc2ccccc12, the Potency was inconclusive: 1.16 µM [inhibitor, partial curve]. With CCN(CC)P(=S)(c1c(C)nc2ccccn12)c1c(C)nc2ccccn12 the Potency was active: 25.9 µM. For O=C(C(=O)N1CCOCC1)c1cn(CCCOc2ccccc2)c2ccccc12, the Potency was “inactive”. With N#CC(C#N)=Cc1ccc(N2CCCC2)cc1 the Potency was “inactive”. With CNCCc1c[nH]c2ccccc12 the Potency was inconclusive: 29.1 µM [inhibitor, single point]. In the case of O=[N+]([O-])c1ccc2nc(N3CCNCC3)ccc2c1, the Potency is reported as “inactive and inconclusive: 20.6 µM [inhibitor, single point]”. In the case of C=CCN1C(=O)NC(=O)/C(=C/c2ccoc2)C1=O, the Potency is reported as inconclusive: 16.4 µM [inhibitor, single point]. In the case of Cc1ccc(NC(=O)CSc2nc(-c3ccco3)cc(C(F)(F)F)n2)c(C)c1, the Potency is reported as active: 1.46 µM. In the case of CCOC(=O)C(O)(c1ccc(NC(=S)NC(=O)c2ccc(Cl)cc2Cl)cc1)C(F)(F)F (centres undefined), the Potency is reported as inconclusive: 29.1 µM [inhibitor, single point]. With N[C@@]1(C(=O)O)CC[C@H](C(=O)O)C1 the Potency was “inactive”. In the case of Fc1cccc(C2NCc3ccccc3-n3cccc32)c1 (centres undefined), the Potency is reported as inconclusive: 29.1 µM [inhibitor, single point]. For Cc1cc(S(=O)(=O)NCC(C)C)ccc1OCC(=O)N1CCN(Cc2ccccc2)CC1, the Potency was inconclusive: 20.6 µM [inhibitor, single point]. For Cc1cccc(Cn2c(=O)n(Cc3ccc(C(=O)NC4CCN(Cc5ccccc5)CC4)cc3)c(=O)c3ccccc32)c1, the Potency was active: 4.11 µM. With O=C1NC(=O)C(=Cc2cc(Cl)ccc2OCc2ccc(C(=O)O)cc2)C(=O)N1 the Potency was “inactive”. In the case of CCC(=O)Oc1ccc2c(c1)CC[C@@H]1[C@@H]2CC[C@]2(C)[C@@H](OC(=O)CC)CC[C@@H]12, the Potency is reported as inconclusive: 29.9 µM [inhibitor, single point].
% is set by controls: 0 for no effect and ±100 for the full control effect; potency is the fitted concentration of half-maximal effect; tags give direction and shape of the fitted curve.
